In the supplement of paper PMC4604168 (melanoma cell lines):
The other results are listed elsewhere or left out. Many values rest on one well or one pass, so single values are uncertain.

System: WM3526
Assay: cell count relative to DMSO control; melanoma cells; higher = more viable cells
Settings: library dose: standard library concentration; 72 h
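Further: cells treated in 1,536-well plates, then fixed and DAPI-stained, with nuclei counted from automated high-throughput microscope images.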

Structure (SMILES)	cell count
CCCCCCCCc1ccc(CCC(N)(CO)CO)cc1 [fingolimod] + CCN(CC)CCCCNc1ncc2cc(-c3cc(OC)cc(OC)c3)c(NC(=O)NC(C)(C)C)nc2n1 [PD173074] (first compound 10 µM, partner dose 0.5 µM)	61.5%
NC(=O)c1ccc(N(C(N)=O)c2c(F)cccc2F)nc1-c1ccc(F)cc1F + CCCCCCCCCCCC1=C(O)C(=O)C=C(O)C1=O [Embelin] (first compound 2 µM, partner dose 6 µM)	98.5%
CCCCCCCCc1ccc(CCC(N)(CO)CO)cc1 [fingolimod] + O=C(Nc1ccccc1)c1cc([N+](=O)[O-])ccc1Cl [GW9662] (first compound 10 µM, partner dose 10 µM)	23%
NC(=O)c1ccc(N(C(N)=O)c2c(F)cccc2F)nc1-c1ccc(F)cc1F + Cn1cc(/C=C2\C(=O)Nc3cccnc32)c2ccccc21 [GW441756] (first compound 2 µM, partner dose 2 µM)	105%
